Read counts are not given, so values of variants with three or more changes are uncertain.
B1: CPEB3 Ribozyme (parent)
chain: UAACAGGGGGCCACAGCAGAAGCGUUCACGUCGCAGCCCCUGUCAGAUUCUGGUGAAUCUGCGAAUUCUGCUGUAUAUCUC

Variants of: B1
Assay: self-cleavage, relative activity (ratio to wild type); higher = more cleavage; in vitro, sequencing
Summary of the method: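 After error-prone PCR and barcoding, CPEB3 ribozyme mutant libraries were transcribed with T7 RNA polymerase at 37°C for 5 hours, then given 15 min with DNase I before an EDTA stop, and they cleaved during both steps. Reverse transcription with template switching preceded Illumina sequencing. Relative activity divides a variant's cleaved/total read fraction by the unmutated ribozyme's. At least 5 reads were required per variant, and three batches were averaged.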

Row | Variant | self-cleavage
1 | A35U A47G U51C U60C | 0.16
2 | A35U A64U U72C U76C | 0.09
3 | C39A C40A G42U | 0.19
4 | A35U C39U U43C A56G C71G U78C C81U | 0.04
5 | A35G U60C C62A | 0.4
6 | C38U U43C C59U | 0.4
7 | C38A U69C U80C | 0.13
8 | G36A U72A U76C | 0.1
9 | C37A U43A A45U A56U U58C U67C U72C | 0.05
10 | A35U A57G U58A | 0.15
11 | C39A A45G U69C U78A | 0.06
12 | A35U A45G A57G U60A | 0.12
13 | C39A A57G U58A | 0.06
14 | C39A A64G A75G | 0.08
15 | C38U U41C U43C U60C U72C | 0.09
16 | A35U U58C U80A | 0.12
17 | C37G A56G U72A | 0.28
18 | A35U A47U U54C | 0.38
19 | C37U U43C U48A | 0.12
20 | G36A A56G U60A A75G | 0.04
21 | C37A U43C A56G A64U | 0.09

Row | Variant | self-cleavage
22 | G36C U41C G46U A47G | 0.08
23 | C39A U49A U66C | 0.18
24 | C37U U43C G46U A56G A65G | 0.13
25 | C38U U69A U80C | 0.21
26 | G36U C62U A64U | 0.15
27 | C38U U41C U60A | 0.5
28 | A35U A45U U54C U58G A64U | 0.06
29 | A35U U43C A45C | 0.14
30 | A35U C38U A47G U48C G63U | 0.08
31 | G36A U58C G61A | 0.11
32 | G36C U51C G52A A56U | 0.08
33 | A35U C62U A64G | 0.17
34 | G36A A45G A65U U72G | 0.06
35 | G36A U41A A75G | 0.08
36 | A35U C37U A45G A47G U48C U49C A65G | 0.08
37 | A35U U54A A77G | 0.5
38 | C38U U41C U58A | 0.47
39 | A35U U43C A45G U51A U66C U80C | 0.11
40 | A35U A64G U80C | 0.33
41 | C39A U41C U58C U69A | 0.07
42 | A35U U41A U67A U72C | 0.16

Row | Variant | self-cleavage
43 | C37A U74C U76A | 0.4
44 | C38A U41G A47G U54C U80C | 0.09
45 | C38U U60C A64G | 0.2
46 | A35U U41A U80C | 0.15
47 | A35U U41A U80A | 0.13
48 | G36A U60C U66C U72C | 0.06
49 | A35U U51C A57G U74C | 0.28
50 | A35U U51A A57U | 0.24
51 | A35U A65U U72A | 0.1
52 | A35U U48C A56G U67C U69C U72C | 0.07
53 | C37G U49C U58C | 0.07
54 | C37G A47G U51A U78C | 0.13
55 | A35G U67A U69C U72C U74C U80C | 0.35
56 | A35U U60A U72C G73A U78A | 0.19
57 | A35U U41C A45G U72C | 0.19
58 | C38U U43C U49A | 0.14
59 | A35G U58C A75G | 1.25
60 | A35U C38U A56G | 0.19
61 | A35U A57G U60A C71A U74A | 0.07
62 | C38U U66C A77U | 0.13
63 | C37A U43C U60C | 0.18

Row | Variant | self-cleavage
64 | C37A U74A A75G U78C | 0.54
65 | A35U U43A U60C A64G | 0.09
66 | A35U A57G C59U | 0.3
67 | A35U U43A G70A | 0.45
68 | A35U A47G U49A U51C | 0.16
69 | A35U U49G A56U A65G U66C A77G | 0.05
70 | C38A C50A U67C C68U U80C | 0.18
71 | G36U U43C U49A U74A U78C | 0.07
72 | G36A G53A A75U | 0.21
73 | G36U U72A A77U | 0.09
74 | A35U C40A A64G | 0.21
75 | C37U A47U U66A | 0.1
76 | A35U U49C G52C | 0.08
77 | A35G U69C C81A | 1.29
78 | A35U A47G U51A U54C A56U | 0.16
79 | C37U U43C A56U A64G U80C | 0.15
80 | A35U U41A A56C | 0.34
81 | A35U A45G A56U A64U | 0.11
82 | C37G U49A U51A U54C U80C | 0.13
83 | A35U A45G U48A U54C | 0.17
84 | C38A A64G C68G U69A | 0.18
